According to article PMC9911399, “Two distinct binding modes provide the RNA-binding protein RbFox with extraordinary sequence specificity”:
Substitutions are numbered along the chain they refer to; changes in the protein carry UniProt numbers. Some of the results follow.

T1: RBFOX1 RRM (Homo sapiens, UniProt Q9NWB1 109-208)
T1 sequence: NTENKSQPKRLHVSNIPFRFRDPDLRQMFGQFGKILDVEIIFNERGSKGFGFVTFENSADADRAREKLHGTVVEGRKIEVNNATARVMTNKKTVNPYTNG

B1: GUACACU (DNA:RNA)
RNA: GGGAGACCGGAAUUCAGAUUGUCCGUACACUUUAAAUCCCGUCGUAGCCACCA
DNA 1: CAATCTGAATTCCGGTCTCCC
DNA 2: TGGTGGCTACGACGGGATT
B2: CCCGUCU (DNA:RNA)
RNA: B1 RNA with G25C, U26C, A27C, C28G, A29U
DNA 1: CAATCTGAATTCCGGTCTCCC
DNA 2: TGGTGGCTACGACGGGATT
B3: CUUAAGC (DNA:RNA)
RNA: B1 RNA with G25C, A27U, C28A, C30G, U31C
DNA 1: CAATCTGAATTCCGGTCTCCC
DNA 2: TGGTGGCTACGACGGGATT
B4: GAGGCUC (DNA:RNA)
RNA: B1 RNA with U26A, A27G, C28G, A29C, C30U, U31C
DNA 1: CAATCTGAATTCCGGTCTCCC
DNA 2: TGGTGGCTACGACGGGATT
B5: GUCAUAG (DNA:RNA)
RNA: B1 RNA with A27C, C28A, A29U, C30A, U31G
DNA 1: CAATCTGAATTCCGGTCTCCC
DNA 2: TGGTGGCTACGACGGGATT
B6: GAAAUAU (DNA:RNA)
RNA: B1 RNA with U26A, C28A, A29U, C30A
DNA 1: CAATCTGAATTCCGGTCTCCC
DNA 2: TGGTGGCTACGACGGGATT
B7: GCAAAGU (DNA:RNA)
RNA: B1 RNA with U26C, C28A, C30G
DNA 1: CAATCTGAATTCCGGTCTCCC
DNA 2: TGGTGGCTACGACGGGATT
B8: AUUAGUG (DNA:RNA)
RNA: B1 RNA with G25A, A27U, C28A, A29G, C30U, U31G
DNA 1: CAATCTGAATTCCGGTCTCCC
DNA 2: TGGTGGCTACGACGGGATT
B9: CAGCUCA (DNA:RNA)
RNA: B1 RNA with G25C, U26A, A27G, A29U, U31A
DNA 1: CAATCTGAATTCCGGTCTCCC
DNA 2: TGGTGGCTACGACGGGATT
B10: UAGUCCU (DNA:RNA)
RNA: B1 RNA with G25U, U26A, A27G, C28U, A29C
DNA 1: CAATCTGAATTCCGGTCTCCC
DNA 2: TGGTGGCTACGACGGGATT
B11: GACGGCC (DNA:RNA)
RNA: B1 RNA with U26A, A27C, C28G, A29G, U31C
DNA 1: CAATCTGAATTCCGGTCTCCC
DNA 2: TGGTGGCTACGACGGGATT
B12: CACUCGU (DNA:RNA)
RNA: B1 RNA with G25C, U26A, A27C, C28U, A29C, C30G
DNA 1: CAATCTGAATTCCGGTCTCCC
DNA 2: TGGTGGCTACGACGGGATT
B13: UCCAGAU (DNA:RNA)
RNA: B1 RNA with G25U, U26C, A27C, C28A, A29G, C30A
DNA 1: CAATCTGAATTCCGGTCTCCC
DNA 2: TGGTGGCTACGACGGGATT
B14: UAACGGA (DNA:RNA)
RNA: B1 RNA with G25U, U26A, A29G, C30G, U31A
DNA 1: CAATCTGAATTCCGGTCTCCC
DNA 2: TGGTGGCTACGACGGGATT
B15: CAACAGC (DNA:RNA)
RNA: B1 RNA with G25C, U26A, C30G, U31C
DNA 1: CAATCTGAATTCCGGTCTCCC
DNA 2: TGGTGGCTACGACGGGATT
B16: CAACGCG (DNA:RNA)
RNA: B1 RNA with G25C, U26A, A29G, U31G
DNA 1: CAATCTGAATTCCGGTCTCCC
DNA 2: TGGTGGCTACGACGGGATT
B17: UGGGUGG (DNA:RNA)
RNA: GGGAGACCGGAAUUCAGAUUGUCCUGGGUGGUUAAAUCCCGUCGUAGCCACCA
DNA 1: CAATCTGAATTCCGGTCTCCC
DNA 2: TGGTGGCTACGACGGGATT
B18: CAUAGGC (DNA:RNA)
RNA: B17 RNA with U25C, G26A, G27U, G28A, U29G, G31C
DNA 1: CAATCTGAATTCCGGTCTCCC
DNA 2: TGGTGGCTACGACGGGATT
B19: GCUAGAU (DNA:RNA)
RNA: B1 RNA with U26C, A27U, C28A, A29G, C30A
DNA 1: CAATCTGAATTCCGGTCTCCC
DNA 2: TGGTGGCTACGACGGGATT
B20: AAGUAGA (DNA:RNA)
RNA: B17 RNA with U25A, G26A, G28U, U29A, G31A
DNA 1: CAATCTGAATTCCGGTCTCCC
DNA 2: TGGTGGCTACGACGGGATT
B21: AUCAGUA (DNA:RNA)
RNA: B1 RNA with G25A, A27C, C28A, A29G, C30U, U31A
DNA 1: CAATCTGAATTCCGGTCTCCC
DNA 2: TGGTGGCTACGACGGGATT
B22: GUUCAAG (DNA:RNA)
RNA: B1 RNA with A27U, C30A, U31G
DNA 1: CAATCTGAATTCCGGTCTCCC
DNA 2: TGGTGGCTACGACGGGATT
B23: UACGUUU (DNA:RNA)
RNA: B17 RNA with G26A, G27C, G30U, G31U
DNA 1: CAATCTGAATTCCGGTCTCCC
DNA 2: TGGTGGCTACGACGGGATT
B24: CGGUAAC (DNA:RNA)
RNA: B17 RNA with U25C, G28U, U29A, G30A, G31C
DNA 1: CAATCTGAATTCCGGTCTCCC
DNA 2: TGGTGGCTACGACGGGATT
B25: AUGGCUA (DNA:RNA)
RNA: B17 RNA with U25A, G26U, U29C, G30U, G31A
DNA 1: CAATCTGAATTCCGGTCTCCC
DNA 2: TGGTGGCTACGACGGGATT
B26: CGGGUUC (DNA:RNA)
RNA: B17 RNA with U25C, G30U, G31C
DNA 1: CAATCTGAATTCCGGTCTCCC
DNA 2: TGGTGGCTACGACGGGATT
B27: UCAAGGC (DNA:RNA)
RNA: B17 RNA with G26C, G27A, G28A, U29G, G31C
DNA 1: CAATCTGAATTCCGGTCTCCC
DNA 2: TGGTGGCTACGACGGGATT
B28: CACAAUG (DNA:RNA)
RNA: B1 RNA with G25C, U26A, A27C, C28A, C30U, U31G
DNA 1: CAATCTGAATTCCGGTCTCCC
DNA 2: TGGTGGCTACGACGGGATT
B29: GCGCGCU (DNA:RNA)
RNA: B1 RNA with U26C, A27G, A29G
DNA 1: CAATCTGAATTCCGGTCTCCC
DNA 2: TGGTGGCTACGACGGGATT
B30: GGGUAGG (DNA:RNA)
RNA: B17 RNA with U25G, G28U, U29A
DNA 1: CAATCTGAATTCCGGTCTCCC
DNA 2: TGGTGGCTACGACGGGATT
B31: UCUUGCG (DNA:RNA)
RNA: B17 RNA with G26C, G27U, G28U, U29G, G30C
DNA 1: CAATCTGAATTCCGGTCTCCC
DNA 2: TGGTGGCTACGACGGGATT

Target: T1, RBFOX1 RRM
Experiment: EMSA; HiTS-Eq, 1 nM pool, 10 min; buffer printed only for the single-RNA assays: 10 mM Tris pH 7.5, 150 mM NaCl, 3.4 mM EDTA, 0.001% NP-40, 30 C
Conditions: tags: His6 N-terminal (pET28a); label: 5' 32P
Summary of the method: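 These values rest on relative association constants, computed from read-count changes of each RNA species versus the control reaction and normalised to the cognate motif. Reads came from free RNA recovered by 8% native PAGE after purified RbFox RRM (wild type or mutant) at increasing concentrations was equilibrated for 10 min in 50 µL with 1 nM of a 5′-radiolabelled pool with 7 randomized nucleotides and DNA-annealed flanks.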

| Binder | binding signal |
| --- | --- |
| B1 | 0.00245 KA relative to UGCAUGU |
| B2 | 0.00831 KA relative to UGCAUGU |
| B3 | 0.00949 KA relative to UGCAUGU |
| B4 | 0.0238 KA relative to UGCAUGU |
| B5 | 0.0112 KA relative to UGCAUGU |
| B6 | 0.0014 KA relative to UGCAUGU |
| B7 | 0.00637 KA relative to UGCAUGU |
| B8 | 0.0135 KA relative to UGCAUGU |
| B9 | 0.00282 KA relative to UGCAUGU |
| B10 | 0.00776 KA relative to UGCAUGU |
| B11 | 0.0213 KA relative to UGCAUGU |
| B12 | 0.00448 KA relative to UGCAUGU |
| B13 | 0.00713 KA relative to UGCAUGU |
| B14 | 0.000926 KA relative to UGCAUGU |
| B15 | 0.00195 KA relative to UGCAUGU |
| B16 | 0.00329 KA relative to UGCAUGU |

| Binder | binding signal |
| --- | --- |
| B17 | 0.0279 KA relative to UGCAUGU |
| B18 | 0.0055 KA relative to UGCAUGU |
| B19 | 0.0161 KA relative to UGCAUGU |
| B20 | 0.00677 KA relative to UGCAUGU |
| B21 | 0.00411 KA relative to UGCAUGU |
| B22 | 0.0125 KA relative to UGCAUGU |
| B23 | 0.0131 KA relative to UGCAUGU |
| B24 | 0.00696 KA relative to UGCAUGU |
| B25 | 0.0119 KA relative to UGCAUGU |
| B26 | 0.0418 KA relative to UGCAUGU |
| B27 | 0.00829 KA relative to UGCAUGU |
| B28 | 0.00478 KA relative to UGCAUGU |
| B29 | 0.02 KA relative to UGCAUGU |
| B30 | 0.0151 KA relative to UGCAUGU |
| B31 | 0.0155 KA relative to UGCAUGU |
